In PubChem BioAssay AID463173 (ICCB-Longwood Screening Facility, Harvard Medical School, 2010):
About 4,300 (8.3%) of roughly 52,000 compounds were called active. Cut-off read from the data, not from the text of the source: active = survival mostly below about 52% (no sharp cut-off); inactive = mostly above about 56%. The list shows a part of the results.

test system: DeltatarO mutant; assay: S. aureus survival, RN4220 and DeltatarO strains – OD600, teichoic acid synthesis inhibitors, primary screen (AID 463173); settings: S. aureus RN4220 wild type/DeltatarO growth, OD600, 18 h, active compounds read low, screened at 18.75 µg/mL (by protocol)

SMILES	survival
O=C(Nc1cc(Cl)cc(Cl)c1)c1ccc(F)c(S(=O)(=O)N2CCc3ccccc32)c1	inactive: 74%
Cc1cccc(OC(=O)CSc2nnc(CNC(=O)c3ccccc3)o2)c1C	inactive: 75%
CCc1ccccc1NC(=O)CN(Cc1ccccc1)S(=O)(=O)c1ccc(Br)cc1	inactive: 62%
COc1ccc(CNC(=O)c2ccc(N3CCCC3)c(NC(=O)NCc3ccc(C)cc3)c2)cc1	inactive: 73%
Cc1nn2c(-c3cccc(NC(=O)c4ccccc4)c3)nnc2c2ccccc12	inactive: 86%
O=S(=O)(Nc1nc2n(n1)C(c1ccc(F)cc1)C=C(c1ccccc1)N2)c1ccccc1 (stereo not drawn)	inactive: 73%
Cc1ccc2ncc(C(=O)Nc3ccc(F)cc3F)c(=O)n2c1	inactive: 99%
COC(=O)c1ccc2c(=O)n(CCCCCC(=O)NCc3ccc(Cl)cc3)c(=O)[nH]c2c1	inactive: 74%
CCOC(=O)c1nn(-c2ccccc2)c(=O)c(C#N)c1C	inactive: 97%
CCc1ccc(CNC(=O)c2ccc(NC(=O)N3CC(C)Sc4ccccc43)cc2)cc1 (stereo not drawn)	inactive: 64%
Cc1cc(C)c2c(=O)cc(C(=O)Nc3ccccc3C(F)(F)F)oc2c1	inactive: 63%
CC(=O)c1ccc(N2CCN(c3ccc(NC(=O)c4ccc(F)cc4)cc3C(=O)O)CC2)cc1	inactive: 55%
Cc1cc(NC(=O)CCS(=O)(=O)c2cc3c4c(c2)CCN4C(=O)CC3)ccc1Br	inactive: 120%
CC(C)(C)c1ccc(C(=O)NCC(c2cccs2)S(=O)(=O)c2ccccc2)cc1 (stereo not drawn)	inactive: 105%
CCc1nnc(SCc2cc(C)ccc2C)c2cc3sc(C)cc3n12	inactive: 86%
COc1cccc(NC(=O)CSC2=Nc3ccccc3C3=NC(CC(=O)NC4CCCCC4)C(=O)N23)c1 (stereo not drawn)	inactive: 95%
CCn1cnc2sc3c(c2c1=O)CCCC3	inactive: 101%
CCOC(=O)c1c(C)[nH]c(C)c1S(=O)(=O)N1CCC(C(=O)N2CCN(c3ccccc3F)CC2)CC1	inactive: 89%
Cc1ccc(-n2c(SCc3cccc(F)c3)nc3[nH]ncc3c2=O)cc1C	inactive: 97%
Cc1ccc2c(c1)-c1cc(C)nn1C(c1cc(Br)ccc1O)N2 (stereo not drawn)	inactive: 152%
COc1cc(OC)c(OC)cc1/C=C/c1nc2cc3ccccc3cc2c(=O)n1-c1ccc(F)cc1F	inactive: 99%
COc1ccc(C2CC(=O)c3cc(-c4nc(-c5ccc(Cl)cc5)c(C)s4)c(=O)[nH]c3C2)cc1 (stereo not drawn)	active: 70%

SMILES	survival
COc1ccc(C2c3c(n(C)c4ccccc34)C(=O)N2CC(=O)Nc2ccc(C)c(Cl)c2)cc1 (stereo not drawn)	inactive: 86%
CC(=O)Nc1cc(OC(C)=O)c2nonc2c1OC(C)=O	active: 29%
Cc1ccc(NC(=O)Cn2cc(S(=O)(=O)c3ccc(C)cc3)c(=O)c3cc4c(cc32)OCO4)cc1	inactive: 58%
Cc1ccc(-c2nc(SCCOc3ccccc3C)n3[nH]c(=O)cc3n2)cc1	inactive: 117%
CC(C)OCCCNC(=O)c1ccc2c(c1)NC(=O)c1ccccc1S2	inactive: 97%
CN(Cc1ccccc1)S(=O)(=O)c1ccc(NC(=O)c2ccco2)cc1	inactive: 85%
COC(=O)c1ccccc1NC(=O)CSc1nc2ccccc2nc1Cc1ccccc1OC	inactive: 89%
CCOC(=O)c1c(-c2ccc(Br)cc2)csc1NC(=O)c1ccc(F)cc1	inactive: 63%
O=C(CCS(=O)(=O)c1cc(Br)cc2c1N(C(=O)C1CC1)CC2)NCc1ccc(Cl)cc1	inactive: 74%
CN(C(=O)c1cc2nc(-c3ccco3)cc(C(F)(F)F)n2n1)c1ccc(OC(F)(F)Cl)cc1	inactive: 167%
CCn1c(=O)sc2cc(NS(=O)(=O)c3ccc(F)c(C)c3)ccc21	inactive: 65%
Cc1ccc(CSc2cn(CC(=O)N3CCCC3)c3ccccc23)cc1	inactive: 54%
O=C(Nc1cc(-c2nc3ccccc3o2)ccc1Cl)c1ccc(N2CCCCC2)c([N+](=O)[O-])c1	inactive: 67%
Cc1cccc(CN2CCC(CNC(=O)c3c(C)oc4ncnc(N5CCCCC5)c34)CC2)c1	inactive: 77%
CCN(C(=O)C1CCC(CNS(=O)(=O)c2cccc3nsnc23)CC1)c1ccc(C)c(C)c1 (stereo not drawn)	inactive: 71%
Nc1nnc(SCc2ccccc2)s1	active: 49%
O=C(c1cccs1)N1CCCc2ccccc21	inactive: 82%
CCOC(=O)C1CCN(c2nc3c(S(=O)(=O)c4ccccc4)nnn3c3ccsc23)CC1	inactive: 71%
CCc1ccccc1N(CC)C(=O)c1c(C)oc2ncnc(N3CCOCC3)c12	inactive: 96%
Cc1ccccc1C(=O)Nc1ccc(OCc2cc(=O)n3cccc(C)c3n2)cc1	inactive: 88%
O=c1c2oc3ccccc3c2n(Cc2ccc(Cl)cc2)c(=O)n1Cc1ccco1	inactive: 77%
O=C1COc2cc(S(=O)(=O)NCc3ccco3)c(Cl)cc2N1	inactive: 98%

SMILES	survival
CC1=C(c2ccc(C)c(C)c2)S(=O)(=O)N=C1N1CCC(C(=O)N2CCC(C(N)=O)CC2)CC1	active: -2%
Fc1ccc(-c2nn(-c3ccccc3Cl)c3c2cnc2ccccc23)cc1	inactive: 89%
Cc1c(N)c(C)c(N)c(C)c1N	inactive: 96%
COc1ccc(-n2nc(C(=O)N3CCN(c4cccc(C)c4C)CC3)c3c4ccccc4n(C)c3c2=O)cc1Cl	inactive: 81%
C#CCn1cc(/C=C(/C#N)C(=O)Nc2ccccc2)c2ccccc21	inactive: 54%
COc1cccc(CNC(=O)Cn2ncn3nc(-c4cccs4)cc3c2=O)c1OC	inactive: 64%
CCC(Oc1ccccc1)C(=O)Nc1cc(-c2cccc(C)c2)nn1-c1ccccc1 (stereo not drawn)	inactive: 83%
COc1ccc(-n2c(C)c(C(C)=O)c3cc(OC(=O)COc4ccccc4)ccc32)cc1	inactive: 61%
Cc1cccc(-c2cc3nc(C)c(C)c(N4CCC5(CC4)OCCO5)n3n2)c1	inactive: 88%
N#Cc1cn(CC(=O)N2CCCC2)c2ccccc12	inactive: 79%
Cc1cc(-c2ccc(C)c(S(=O)(=O)NCc3cccc(Br)c3)c2)on1	inactive: 97%
CCCS(=O)(=O)N1CC(=O)N(c2cccc(Cl)c2C)C(C)(C(=O)NC2CCCC2)C1 (stereo not drawn)	inactive: 99%
Cc1cc(C)cc(OCC(=O)N(Cc2cccs2)c2ccc(Cl)cc2)c1	inactive: 61%
CCCCCn1c(CCNC(=O)c2ccc(F)cc2)nc2ccccc21	inactive: 68%
CCOCCCNC(=O)c1cnc2sc(N3CCCCC3)nn2c1=O	inactive: 75%
COc1ccccc1NC(=O)c1oc2ccccc2c1NC(=O)c1cccc(OC)c1OC	inactive: 72%
CC(C)Nc1nc(Cl)nc(NNC(=O)C(C)Oc2ccccc2)n1 (stereo not drawn)	inactive: 93%
O=C(c1ccc2c(c1)N(Cc1ccc(F)cc1)C(=O)c1ccccc1S2(=O)=O)N1CCCC1	inactive: 80%
CCC(=O)N1CCCc2cc(S(=O)(=O)N3CCC(C(=O)NC4CCCCC4)CC3)ccc21	inactive: 116%
COc1ccccc1Cn1c(CNS(=O)(=O)c2ccc(C(C)C)cc2)nc2cccnc21	inactive: 101%
COc1ccc(CNC(=O)c2nc(SCc3ccccc3F)ncc2Cl)cc1	inactive: 81%
CC(NC(=O)c1ccc2c(c1)CCN2S(=O)(=O)c1ccccc1)c1ccccc1 (stereo not drawn)	active: 37%

SMILES	survival
COc1ccc(N2CCN(CCCNC(=O)c3cc(Nc4ccc(OC)cc4OC)nc4ccccc34)CC2)cc1	inactive: 87%
O=C(CCS(=O)(=O)c1ccccc1)N(Cc1cccnc1)c1nc2ccc(Cl)cc2s1	inactive: 92%
CCCN1Cc2cccc(C(=O)Nc3ccc(C(C)=O)cc3)c2C1=O	inactive: 88%
Cc1ccccc1Nc1c(-c2cc(Br)ccc2F)nc2ccccn12	inactive: 154%
CCOC(=O)C1CCC(CN(Cc2ccccc2)S(=O)(=O)c2ccc(Br)cc2)CC1 (stereo not drawn)	inactive: 83%
COc1cc(NC(=O)CCS(=O)(=O)c2ccc3c(c2)CC(=O)N3C)cc(OC)c1OC	inactive: 97%
COc1ccc(/C=C/c2nc(C#N)c(NCc3ccc(F)cc3)o2)cc1OC	inactive: 87%
CCOc1ccc(-c2cc(C(=O)Oc3ccc(C#N)cc3)no2)cc1	inactive: 54%
CCNC(=S)N1CCC(C(=O)c2ccc3c(c2)OCCO3)CC1	active: 58%
CCc1ccc(-n2c(=O)c3c4c(sc3n(CC(=O)N3CCCCC3CC)c2=O)CCC4)cc1 (stereo not drawn)	inactive: 85%
Cc1c(CCC(=O)NCCc2ccc(Cl)cc2)c(=O)oc2c(C)c(O)ccc12	inactive: 69%
Cc1c(CNC2CCCCC2)c(C(=O)O)c(C)n1Cc1cccc(Cl)c1	inactive: 85%
CCOc1ccccc1NC(=O)c1nc(SC(C)C)ncc1Cl	inactive: 113%
CCc1ccc(NC(=O)CN2C(=O)C(c3ccc(Cl)cc3)=NC23CCCCC3)cc1	inactive: 84%
Cc1ccc(NC(=O)Cn2c(=O)n(Cc3nc(C)no3)c(=O)c3ccccc32)c(Cl)c1	inactive: 99%
Cc1cccc(C)c1OCCCn1c(CCNC(=O)C2CCCCC2)nc2ccccc21	active: 1%
O=C(NC1CC2CCC(C1)N2Cc1nnnn1Cc1ccco1)NC12CC3CC(CC(C3)C1)C2 (stereo not drawn)	inactive: 55%
Cc1c(C(=O)Nc2cccc(Cl)c2)sc2nc3n(c(=O)c12)N=C(c1cccc(Br)c1)CS3	inactive: 73%
COc1cccc(C(=O)c2c(N)c(-c3nc(-c4ccccc4)cs3)c3ccccn23)c1	inactive: 82%
Cc1cc(C)nc(SCC(=O)Nc2ccc(N3CCOCC3)cc2)n1	inactive: 82%
Cc1cccc(-n2c(=O)c3c(c4cc(C)ccc4n3C)n(CC(=O)N3CCCC3)c2=O)c1	inactive: 98%
O=C(CN1C(=O)COc2ccccc21)NCCc1ccc(Cl)cc1	inactive: 94%
